PubChem BioAssay (Tox21)
The shares of active, inactive and inconclusive entries below differ from those in the screen. For some assays here: Where the call is inconclusive, the potency comes from a doubtful curve fit. Active and inactive are the calls of the source. The call rests on the fitted dose curve; in most records, active means well fitted curve in the direction sought with a large enough effect in the repeat runs; inconclusive means weak or mixed curves; inactive means no such curve, though single readings can be large; an effect the other way counts as inactive or inconclusive.

Experiments:
[1] = qHTS RealTime-Glo MT Cell Viability Assay in HepG2 cells - 16 hour (AID 1224885); further: nearly all actives have a fitted effect of over 50% in size
Outline: (§1)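 Luminescence read-out: viable HepG2 cells reduce a prosubstrate to a NanoLuc substrate, giving a signal proportional to live cell number. Reads taken at 0, 8, 16, 24, 32 and 40 h of compound exposure at 37 C.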

[2] = qHTS RealTime-Glo MT Cell Viability Assay in HEK293 cells - 24 hour (AID 1224886); further: nearly all actives have a fitted effect of over 50% in size
Outline: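 Nonlytic real-time viability readout: viable cells convert prosubstrate to NanoLuc substrate, giving luminescence proportional to live cell number. HEK293, 600 cells/well, compound added after 5 h, continuous culture at 37 C.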

[3] = qHTS assay to identify small molecule antagonists of the estrogen receptor alpha (ER-alpha) signaling pathway using the BG1 cell line in the presence of 0.1 nM 17-beta-estradiol - cell viability counter screen (AID 1259241); further: nearly all actives have a fitted effect of over 40% in size
Outline: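 Viability in VM7Luc4E2 cells after 22 hr compound exposure under 0.1 nM 17beta-estradiol stimulation, by CellTiter-Fluor.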

[4] = qHTS RealTime-Glo MT Cell Viability Assay in HEK293 cells - 8 hour (AID 1224887); further: nearly all actives have a fitted effect of over 50% in size
Outline: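 Luminescence readout at each listed time point; HEK293, 600 cells/well, RealTime-Glo MT reagent added with cells; compounds pinned (23 nL in DMSO) after 5 h at 37 C; continuous culture at 37 C.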

[5] = qHTS RealTime-Glo MT Cell Viability Assay in HepG2 cells - 0 hour (AID 1224889); further: nearly all actives have a fitted effect of over 50% in size
Outline: as §1

[6] = A CellTox Green Cytotoxicity Assay to monitor cytotoxicity in HepG2 cells - 8 hour (AID 1224890); further: nearly all actives have a fitted effect of over 45% in size
Outline: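 HepG2, 600 cells/well premixed w/ CellTox Green; 5 h settle, 37 C/5% CO2; pintool cpd add (DMSO); 37 C, 40 h; fluorescence read at 0, 8, 16, 24, 32, 40 h.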

[7] = A CellTox Green Cytotoxicity Assay to monitor cytotoxicity in HEK293 cells - 16 hour (AID 1224888); further: nearly all actives have a fitted effect of over 35% in size
Outline: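 Read-out: fluorescence of a cell-impermeant cyanine dye staining DNA of dead cells, proportional to cytotoxicity. HEK293, 600 cells/well with reagent, compound (23 nL DMSO) added after 5 h; reads at 0, 8, 16, 24, 32, 40 h.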
Potency means the concentration at half of the fitted maximal effect; tags describe the fitted curve by direction and shape.

Cc1[nH]nc2c1N=C(c1ccccc1Cl)c1cc([N+](=O)[O-])ccc1N2
Potency [1]: inactive
Potency [2]: inconclusive: 0.49 µM [cytotoxic, full curve]
Potency [3]: active: 27.3 µM

Cc1c(C2(c3cc(Br)c(O)c(Br)c3C)OS(=O)(=O)c3ccccc32)cc(Br)c(O)c1Br
Potency [1]: inactive
Potency [4]: inconclusive: 42.4 µM [cytotoxic, partial curve, poor fit]
Potency [5]: active: 13.4 µM

Cc1cccc(Br)c1
Potency [1]: inactive
Potency [5]: inconclusive: 22 µM [cytotoxic, partial curve]

CO[Si](C)(C)OC
Potency [2]: inactive

CCCCCCn1c(=O)c2c(ncn2C)n(C)c1=O
Potency [1]: inconclusive: 7.56 µM [cytotoxic, full curve]
Potency [5]: inactive

CCCCOc1ccc(OCCCN2CCOCC2)cc1
Potency [2]: inconclusive: 21.3 µM [cytotoxic, partial curve, poor fit]

Nc1c(N=Nc2ccc(-c3ccc(N=Nc4cc(S(=O)(=O)O)c5ccccc5c4N)cc3)cc2)cc(S(=O)(=O)O)c2ccccc12
Potency [1]: inconclusive: 43.6 µM [cytotoxic, partial curve]
Potency [2]: active: 43.6 µM
Potency [5]: inconclusive: 21.9 µM [cytotoxic, partial curve]
Potency [3]: active: 12.2 µM

Cc1cccc(C)c1OCC(C)N (stereo unspecified)
Potency [2]: inactive

CN(C)CCCN1c2ccccc2Sc2ccc(C(F)(F)F)cc21
Potency [1]: inconclusive: 23.9 µM [cytotoxic, single point]
Potency [2]: active: 21.3 µM
Potency [5]: inconclusive: 9.52 µM [rising, full curve]
Potency [6]: inconclusive: 23.9 µM [activator, single point]

CCCCCCOC(=O)NC(=N)c1ccc(NCc2nc3cc(C(=O)N(CCC(=O)OCC)c4ccccn4)ccc3n2C)cc1
Potency [1]: inconclusive: 23.9 µM [cytotoxic, single point]
Potency [4]: active: 9.52 µM
Potency [3]: inconclusive: 29.8 µM [cytotoxic]

COc1cc(C(=O)NC2CCCNC2)cc(OC)c1OC (stereo unspecified)
Potency [1]: inconclusive: 26.8 µM [cytotoxic, single point]
Potency [5]: inconclusive: 26.8 µM [cytotoxic, single point]

Oc1ccc(-c2ccc(O)cc2)cc1
Potency [2]: inconclusive: 34.9 µM [cytotoxic, partial curve]

O=C1CCc2ccc(OCCCCN3CCN(c4cccc(Cl)c4Cl)CC3)cc2N1
Potency [1]: inconclusive: 26.8 µM [cytotoxic, single point]
Potency [6]: inactive
Potency [3]: inconclusive: 23.7 µM [cytotoxic, partial curve, poor fit]

NC(=O)c1ccccc1N
Potency [2]: inactive

CC(COC(=O)c1ccccc1)OC(=O)c1ccccc1 (stereo unspecified)
Potency [1]: inactive
Potency [3]: inactive

NCCc1ccc(O)c(O)c1
Potency [1]: inactive
Potency [2]: inconclusive: 43.8 µM [cytotoxic, partial curve] and inactive
Potency [3]: inconclusive: 21.1 µM [cytotoxic, partial curve]

C[C@@H]1CN(CCCn2c3ccccc3c3ccccc32)C[C@H](C)N1
Potency [1]: active: 23.9 µM
Potency [4]: inconclusive: 26.8 µM [cytotoxic, single point]
Potency [7]: active: 21.3 µM
Potency [5]: inconclusive: 9.52 µM [rising, partial curve, poor fit]
Potency [6]: inconclusive: 6.01 µM [activator, single point]
